The list shows a part of the results.
Tests used:
Test in all cases: glycan array binding signal (z-score within array); higher = stronger binding
Details in all cases: glycan notation: IUPAC condensed, linker removed
[1] = target: Glc(a1-2)Glc
Procedure, shortened: (§1)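 From the Consortium for Functional Glycomics database, 3228 arrays were curated, keeping only those whose protein sequence was available. Binding is given as a within-array Z-score averaged across arrays sharing a protein sequence and across linkers. Negative Z-scores can be read as non-binding.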

[2] = target: Glc(a1-2)Glc(a1-2)Glc
Procedure, shortened: as §1

[3] = target: Glc(a1-2)Glc(a1-2)Glc(a1-2)Glc
Procedure, shortened: as §1

[4] = target: Glc(a1-2)Glc(a1-2)Glc(a1-2)Glc(a1-2)Glc
Procedure, shortened: as §1

[5] = target: Glc(a1-2)Glc(a1-2)Glc(a1-2)Glc(a1-2)Glc(a1-2)Glc
Procedure, shortened: as §1

[6] = target: Glc(a1-2)Glc(a1-2)Glc(a1-2)Glc(a1-2)Glc(a1-2)Glc(a1-2)Glc
Procedure, shortened: as §1

[7] = target: Glc(a1-2)Glc(a1-2)Glc(a1-2)Glc(a1-2)Glc(a1-2)Glc(a1-2)Glc(a1-2)Glc
Procedure, shortened: as §1

[8] = target: Glc(a1-2)Glc(a1-2)Glc(a1-2)Glc(a1-2)Glc(a1-2)Glc(a1-2)Glc(a1-2)Glc(a1-2)Glc
Procedure, shortened: as §1

[9] = target: Glc(a1-3)Glc
Procedure, shortened: as §1

[10] = target: Glc(a1-3)Glc(a1-3)Glc
Procedure, shortened: as §1

[11] = target: Glc(a1-3)Glc(a1-3)Glc(a1-3)Glc
Procedure, shortened: as §1

[12] = target: Glc(a1-3)Glc(a1-3)Glc(a1-3)Glc(a1-3)Glc
Procedure, shortened: as §1

[13] = target: Glc(a1-3)Glc(a1-3)Glc(a1-3)Glc(a1-3)Glc(a1-3)Glc
Procedure, shortened: as §1

[14] = target: Glc(a1-3)Glc(a1-3)Glc(a1-3)Glc(a1-3)Glc(a1-3)Glc(a1-3)Glc
Procedure, shortened: as §1

[15] = target: Glc(a1-3)Glc(a1-3)Glc(a1-3)Glc(a1-3)Glc(a1-3)Glc(a1-3)Glc(a1-3)Glc
Procedure, shortened: as §1

[16] = target: Glc(a1-3)Glc(a1-3)Glc(a1-3)Glc(a1-3)Glc(a1-3)Glc(a1-3)Glc(a1-3)Glc(a1-3)Glc
Procedure, shortened: as §1

[17] = target: Glc(a1-3)Glc(a1-3)Glc(a1-3)Glc(a1-3)Glc(a1-3)Glc(a1-3)Glc(a1-3)Glc(a1-3)Glc(a1-3)Glc
Procedure, shortened: as §1

[18] = target: Glc(a1-3)Glc(a1-3)Glc(a1-3)Glc(a1-3)Glc(a1-3)Glc(a1-3)Glc(a1-3)Glc(a1-3)Glc(a1-3)Glc(a1-3)Glc
Procedure, shortened: as §1

[19] = target: Glc(a1-3)Glc(a1-3)Glc(a1-3)Glc(a1-3)Glc(a1-3)Glc(a1-3)Glc(a1-3)Glc(a1-3)Glc(a1-3)Glc(a1-3)Glc(a1-3)Glc
Procedure, shortened: as §1

[20] = target: Glc(a1-3)Glc(a1-3)Glc(a1-3)Glc(a1-3)Glc(a1-3)Glc(a1-3)Glc(a1-3)Glc(a1-3)Glc(a1-3)Glc(a1-3)Glc(a1-3)Glc(a1-3)Glc
Procedure, shortened: as §1

[21] = target: Glc(a1-4)Glc
Procedure, shortened: as §1

[22] = target: Glc(a1-4)Glc(a1-4)Glc
Procedure, shortened: as §1

[23] = target: Glc(a1-4)Glc(a1-4)Glc(a1-4)Glc
Procedure, shortened: as §1

[24] = target: Glc(a1-4)Glc(a1-4)Glc(a1-4)Glc(a1-4)Glc
Procedure, shortened: as §1

[25] = target: Glc(a1-4)Glc(a1-4)Glc(a1-4)Glc(a1-4)Glc(a1-4)Glc
Procedure, shortened: as §1

[26] = target: Glc(a1-4)Glc(a1-4)Glc(a1-4)Glc(a1-4)Glc(a1-4)Glc(a1-4)Glc
Procedure, shortened: as §1

[27] = target: Glc(a1-4)Glc(a1-4)Glc(a1-4)Glc(a1-4)Glc(a1-4)Glc(a1-4)Glc(a1-4)Glc
Procedure, shortened: as §1

[28] = target: Glc(a1-4)Glc(a1-4)Glc(a1-4)Glc(a1-4)Glc(a1-4)Glc(a1-4)Glc(a1-4)Glc(a1-4)Glc
Procedure, shortened: as §1

[29] = target: Glc(a1-4)Glc(a1-4)Glc(a1-4)Glc(a1-4)Glc(a1-4)Glc(a1-4)Glc(a1-4)Glc(a1-4)Glc(a1-4)Glc
Procedure, shortened: as §1

[30] = target: Glc(a1-4)Glc(a1-4)Glc(a1-4)Glc(a1-4)Glc(a1-4)Glc(a1-4)Glc(a1-4)Glc(a1-4)Glc(a1-4)Glc(a1-4)Glc
Procedure, shortened: as §1

[31] = target: Glc(a1-4)Glc(a1-4)Glc(a1-4)Glc(a1-4)Glc(a1-4)Glc(a1-4)Glc(a1-4)Glc(a1-4)Glc(a1-4)Glc(a1-4)Glc(a1-4)Glc
Procedure, shortened: as §1

[32] = target: Glc(a1-4)Glc(a1-4)Glc(a1-4)Glc(a1-4)Glc(a1-4)Glc(a1-4)Glc(a1-4)Glc(a1-4)Glc(a1-4)Glc(a1-4)Glc(a1-4)Glc(a1-4)Glc
Procedure, shortened: as §1

[33] = target: Glc(a1-4)Glc(a1-6)Glc
Procedure, shortened: as §1

[34] = target: Glc(a1-6)Glc
Procedure, shortened: as §1

[35] = target: Glc(a1-6)Glc(a1-4)Glc
Procedure, shortened: as §1

[36] = target: Glc(a1-6)Glc(a1-4)Glc(a1-4)Glc
Procedure, shortened: as §1

[37] = target: Glc(a1-6)Glc(a1-4)Glc(a1-4)Glc(a1-6)Glc(a1-4)Glc(a1-4)Glc
Procedure, shortened: as §1

[38] = target: Glc(a1-6)Glc(a1-6)Glc
Procedure, shortened: as §1

[39] = target: Glc(a1-6)Glc(a1-6)Glc(a1-6)Glc
Procedure, shortened: as §1

[40] = target: Glc(a1-6)Glc(a1-6)Glc(a1-6)Glc(a1-6)Glc
Procedure, shortened: as §1

[41] = target: Glc(a1-6)Glc(a1-6)Glc(a1-6)Glc(a1-6)Glc(a1-6)Glc
Procedure, shortened: as §1

[42] = target: Glc(a1-6)Glc(a1-6)Glc(a1-6)Glc(a1-6)Glc(a1-6)Glc(a1-6)Glc
Procedure, shortened: as §1

[43] = target: Glc(a1-6)Glc(a1-6)Glc(a1-6)Glc(a1-6)Glc(a1-6)Glc(a1-6)Glc(a1-6)Glc
Procedure, shortened: as §1

[44] = target: Glc(a1-6)Glc(a1-6)Glc(a1-6)Glc(a1-6)Glc(a1-6)Glc(a1-6)Glc(a1-6)Glc(a1-6)Glc
Procedure, shortened: as §1

[45] = target: Glc(a1-6)Glc(a1-6)Glc(a1-6)Glc(a1-6)Glc(a1-6)Glc(a1-6)Glc(a1-6)Glc(a1-6)Glc(a1-6)Glc
Procedure, shortened: as §1

[46] = target: Glc(a1-6)Glc(a1-6)Glc(a1-6)Glc(a1-6)Glc(a1-6)Glc(a1-6)Glc(a1-6)Glc(a1-6)Glc(a1-6)Glc(a1-6)Glc
Procedure, shortened: as §1

[47] = target: Glc(a1-6)Glc(a1-6)Glc(a1-6)Glc(a1-6)Glc(a1-6)Glc(a1-6)Glc(a1-6)Glc(a1-6)Glc(a1-6)Glc(a1-6)Glc(a1-6)Glc
Procedure, shortened: as §1

[48] = target: Glc(a1-6)Glc(a1-6)Glc(a1-6)Glc(a1-6)Glc(a1-6)Glc(a1-6)Glc(a1-6)Glc(a1-6)Glc(a1-6)Glc(a1-6)Glc(a1-6)Glc(a1-6)Glc
Procedure, shortened: as §1

[49] = target: Glc(b1-2)Glc
Procedure, shortened: as §1

[50] = target: Glc(b1-2)Glc(b1-2)Glc
Procedure, shortened: as §1

[51] = target: Glc(b1-2)Glc(b1-2)Glc(b1-2)Glc
Procedure, shortened: as §1

[52] = target: Glc(b1-2)Glc(b1-2)Glc(b1-2)Glc(b1-2)Glc
Procedure, shortened: as §1

[53] = target: Glc(b1-2)Glc(b1-2)Glc(b1-2)Glc(b1-2)Glc(b1-2)Glc
Procedure, shortened: as §1

[54] = target: Glc(b1-2)Glc(b1-2)Glc(b1-2)Glc(b1-2)Glc(b1-2)Glc(b1-2)Glc
Procedure, shortened: as §1

[55] = target: Glc(b1-2)Glc(b1-2)Glc(b1-2)Glc(b1-2)Glc(b1-2)Glc(b1-2)Glc(b1-2)Glc
Procedure, shortened: as §1

[56] = target: Glc(b1-2)Glc(b1-2)Glc(b1-2)Glc(b1-2)Glc(b1-2)Glc(b1-2)Glc(b1-2)Glc(b1-2)Glc
Procedure, shortened: as §1

[57] = target: Glc(b1-2)Glc(b1-2)Glc(b1-2)Glc(b1-2)Glc(b1-2)Glc(b1-2)Glc(b1-2)Glc(b1-2)Glc(b1-2)Glc
Procedure, shortened: as §1

[58] = target: Glc(b1-2)Glc(b1-2)Glc(b1-2)Glc(b1-2)Glc(b1-2)Glc(b1-2)Glc(b1-2)Glc(b1-2)Glc(b1-2)Glc(b1-2)Glc
Procedure, shortened: as §1

[59] = target: Glc(b1-2)Glc(b1-2)Glc(b1-2)Glc(b1-2)Glc(b1-2)Glc(b1-2)Glc(b1-2)Glc(b1-2)Glc(b1-2)Glc(b1-2)Glc(b1-2)Glc
Procedure, shortened: as §1

[60] = target: Glc(b1-2)Glc(b1-2)Glc(b1-2)Glc(b1-2)Glc(b1-2)Glc(b1-2)Glc(b1-2)Glc(b1-2)Glc(b1-2)Glc(b1-2)Glc(b1-2)Glc(b1-2)Glc
Procedure, shortened: as §1

Measured: glycan array binding signal (z-score)

B1: Cel5A (Clostridium thermocellum), P16218 (protein)
chain: AVGEKMLDDFEGVLNWGSYSGEGAKVSTKIVSGKTGNGMEVSYTGTTDGYWGTVYSLPDGDWSKWLKISFDIKSVDGSANEIRFMIAEKSINGVGDGEHWVYSITPDSSWKTIEIPFSSFRRRLDYQPPGQDMSGTLDLDNIDSIHFMYANNKSGKFVVDNIKLIGATSDPTPSIKHGDLNFDNAVNSTDLLMLKRYILKSLELGTSEQEEKFKKAADLNRDNKVDSTDLTILKRYLLKAISEIPI
-0.107: [26]
-0.062: [51]
-0.081: [16]
-0.101: [54]
-0.119: [24]
-0.136: [34]
0.023: [19]
-0.111: [7]
-0.123: [32]
-0.112: [31]
-0.126: [11]
-0.09: [43]
-0.095: [40]
-0.108: [8]
-0.137: [49]
-0.064: [30]
-0.129: [25] | [44]
-0.143: all other assays above

Reference: the supplement of paper PMC8728848
